Measurements reported in the supplement of paper PMC3334620.
In all, about 33,000 sequences were measured (“E-score (-0.5 to 0.5)”: median about -0.056, highest 2% from about 0.38 on). The list shows a part of the results.

What follows are sequences tested against Stb4 (UniProt P50104) (assay: PBM E-score (8-mer binding enrichment) (E-score (-0.5 to 0.5)); higher = stronger / more preferred TF binding; most listed sequences are background and not binding sites). Conditions: protein concentration: 200 nM; construct: GST-DNA-binding domain.
Experimental: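 Universal 'all 10-mer' protein binding microarrays (Agilent AMADID 015681) probed with GST-tagged S. cerevisiae TFs (full-length or DBD) made by in vitro transcription/translation (PURExpress), about 100-200 nM. Bound TF was detected with fluorescent anti-GST. Each ungapped 8-mer (which stands for itself and its reverse complement) is scored by the PBM enrichment score (E-score), a modified Wilcoxon-Mann-Whitney statistic from -0.5 to +0.5, computed with the Universal PBM Analysis Suite. Scale: above 0.35 generally sequence-specific binding.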

Sequence | PBM E-score
GTTTGCTA | -0.0608
GAACTTAA | 0.0793
AGGCACGC | -0.0406
TTAACGAA | -0.0137
ATCATTGA | -0.111
CTTCCGCC | 0.297
ATGAGAGC | -0.0665
GTATGACA | -0.0492
CATAGTAC | -0.0194
GGTTCCGA | 0.468
GAACCCTC | 0.114
CGAACTAG | 0.121
CAGTTTCA | -0.239
CGTCTATC | -0.00175
CTTGTAGA | -0.174
GTACCCAC | 0.169
GCAGTGAA | -0.0782
AACGGTGT | -0.125
CACACATA | -0.0365
CAGTACTC | -0.194
CTGTGCAA | -0.258
CCGTGACC | 0.165
TACGTCAA | -0.167
CCTGAGCG | -0.242
AACTAATG | -0.0585

Sequence | PBM E-score
ATTCCTTA | -0.192
ACCATTAA | 0.0503
AACCCAGA | -0.198
AATTTGCC | 0.0997
CTTCGACC | -0.0721
ATACCAAT | -0.00151
GATTAGCC | 0.131
CAATGCCG | 0.331
AAATACGG | 0.0246
TATTCTCA | -0.166
AGGCTCTC | -0.104
CCCTAGTC | -0.24
GAAGGCTC | -0.00996
CTGACGCA | -0.298
CCACCGTA | -0.0836
TCTTCGAA | -0.201
CTAAGAAC | 0.118
CACATGAA | -0.0962
ATAAGAAC | 0.114
CAGCACGG | 0.161
ACGAGTAG | -0.11
AACTTATA | 0.0985
ATCAGCGG | 0.209
GCAACACA | -0.121
AACCATGT | 0.0503

Sequence | PBM E-score
ACCGAATG | 0.217
AGTCTAAC | -0.163
AAACGCCG | 0.287
GAGAGGGC | -0.274
ACCTCTGA | -0.0188
CCGTCAAG | 0.118
CAACGGGG | -0.121
ATCACCAT | -0.0633
AACAATAA | 0.13
CATTTAAC | -0.0923
CTCGCCAC | -0.119
CCCAAGGA | -0.173
ATTCACCG | 0.259
GTATCGAC | -0.064
GATGCATC | 0.0326
AAAGGCCC | -0.0153
AGCATTCA | -0.0667
ATCCATAA | 0.0647
AGTGATTC | 0.0168
ACGGTAAT | 0.045
ACATCAGA | -0.145
CCCCTGGC | -0.00158
CGAGATGA | 0.21
CAGTGAAG | -0.214
AACCTGGC | -0.224

Sequence | PBM E-score
ATCTTGGG | -0.206
GACTAATC | 0.0642
GTCCCAAC | -0.189
GTAGAGTA | -0.0535
GGTCACAA | 0.00311
ACTAATTC | 0.13
CAAGGTGC | -0.132
ACCATCAC | -0.0712
GCGAACTA | 0.053
AGCATTGC | -0.0432
CGACCGGC | 0.119
CGGCAAAG | 0.282
GGGTACAA | 0.153
ACGTTTCA | -0.0513
AGACGTGC | -0.0523
GCGTAAGA | 0.0257
AGCCTGTA | -0.0937
AACGGAGG | 0.203
GACTACCC | 0.205
AATAGGCG | 0.112
AAAATCCA | -0.0988
AACTCTGT | -0.208
CGCCTACC | 0.0138
GTCCTACA | 0.135
AGCATAAG | -0.0221

Sequence | PBM E-score
ACTTGATC | -0.0308
GGACGTTA | 0.0417
AATCTGTA | -0.166
ATCACATC | 0.161
AAACATCT | -0.0959
GGTATCCA | 0.0955
AGTAATCG | 0.028
AACTAGCA | 0.0498
GTTGGTCA | -0.00814
ACATCCTG | -0.0816
AGATCTGC | -0.158
AGACTGCT | -0.297
GCGTTCCC | 0.197
GGGACTAC | 0.134
CTTGGTAC | -0.0021
AATATGCC | 0.0963
CTGATTAA | 0.0362
CTTTTCAC | -0.191
CAGTAATA | -0.0578
CGAGCGGA | 0.367
CAATGCAC | -0.0284
CCACAGTA | -0.254
ACGGGCAG | 0.00374
GAGATTAA | -0.0853
ATTTGTTA | 0.0653

Sequence | PBM E-score
AGAGGCTC | -0.095
CATTAATG | -0.105
AATCGTTC | -0.0546
ATCTGAAG | -0.0674
AGTTGATG | -0.273
CCTGGGTC | -0.126
AAGTACAG | -0.344
CGCAGCAA | -0.172
AAATTGCT | -0.149
GGGCGCTA | -0.15
ATCCCAAG | -0.0181
ACCCACAC | 0.0508
TGTCTAAA | -0.228
CGTCCAAG | -0.115
ATCTTATC | 0.0563
GAGGGCGC | -0.0042
CATAGATG | -0.0909
GGAGAGCA | -0.139
GACGCAGA | 0.0644
GGAAGGAC | 0.13
GAGTTAAA | -0.112
TTAAATAA | 0.178
ACAAGGCG | -0.0823
TCGCGCAA | -0.185
ATCCGTAA | 0.35

Sequence | PBM E-score
CGTGGAGC | 0.0476
CAGGAATG | -0.259
CGCGCCTA | 0.0819
GAGCAGAA | -0.0843
TGAGTAAA | -0.204
ACTTGGAT | -0.0862
GGATAGGA | 0.184
AGATGTCG | 0.0571
ACCCGCGA | 0.085
AACTCGGG | 0.383
AGGCGGCA | -0.106
CCTAAGAC | -0.175
GGCAACCC | 0.072
CATGGTCG | 0.0755
AACACATT | 0.0917
CAACACTA | -0.108
GAAATGGA | -0.0648
ACTATGCT | -0.165
AGTTGTCG | -0.00015
ATAATTGG | -0.0516
ATATGAAA | -0.0762
AATATAGT | -0.0188
TCCGACCA | 0.388
CTGCAGTC | -0.0539
TATCAGAA | 0.0123

Sequence | PBM E-score
ATGAGTTC | 0.129
ATAACCGG | 0.281
AGACTATG | -0.17
GTATTATA | 0.0782
AAAAAAAT | 0.115
GAAAACGA | -0.137
CTCAGAGC | -0.294
TGGTAACA | -0.132
AAATTACC | 0.178
AGAGTAGC | -0.183
GAGAAAAC | -0.00747
CTTCCGCA | 0.331
CTATGGAA | 0.0451
ACATATCA | -0.118
CTGGAAAG | -0.225
CGAGTGGC | 0.0432
CAAACATG | -0.147
ACCTTGGC | -0.132
AGCCAAAA | -0.0824
ACGTCGTC | 0.0122
CACAATAC | -0.0502
TGCGTCCA | -0.226
AGTTCGTA | 0.0255
CTTGGTTC | 0.124
CACAGAAA | -0.041

Sequence | PBM E-score
CCCAAGTC | -0.161
CGGCATAA | 0.285
GACTATGA | -0.231
CCTCTCAC | -0.157
TTAACCAA | -0.222
GAAACGCA | -0.0307
CTCAGGGC | -0.0989
CTGCCTCC | -0.0686
AAGCCGGG | 0.264
TCCCTACA | -0.122
AAAGGGGC | -0.197
GAATACCA | -0.0726
GTAGGAAC | -0.154
CGTTGTGA | -0.0537
CTAGGGCA | -0.217
AGTCTCGC | -0.0759
AAAGCCTA | -0.301
TCTCTTCA | 0.00232
TAGGTGAA | -0.00505
